Test results taken from the supplement of paper PMC4166925.
± gives the standard deviation of the averaged measurements. The full ranking holds about 33,000 sequences; the median of “E-score (dimensionless, -0.5 to 0.5)” is about -0.049, and the highest 2% start at about 0.37. Some of the results follow.

test system: T1, PmTbr T-box DNA-binding domain (GST fusion); test: PBM E-score of 8-mer (E-score (dimensionless, -0.5 to 0.5)); Tbr is Tbrain of the sea star Patiria miniata (Pm) or the sea urchin Strongylocentrotus purpuratus (Sp); higher = stronger binding preference; most listed sequences are background and not binding sites; details: the construct has about 5 more residues each side
T1 sequence: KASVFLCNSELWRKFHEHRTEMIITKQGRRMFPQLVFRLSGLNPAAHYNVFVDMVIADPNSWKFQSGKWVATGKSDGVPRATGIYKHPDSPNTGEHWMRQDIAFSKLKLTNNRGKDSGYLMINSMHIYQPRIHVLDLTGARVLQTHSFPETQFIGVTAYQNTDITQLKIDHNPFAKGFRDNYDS
Outline: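 Universal Agilent oligonucleotide arrays, made double-stranded by primer extension, were incubated with 200 nM GST-fused Tbr T-box DNA-binding domain in PBS (pH 7.5). The protein was expressed in BL21 E. coli at 20 °C and purified by glutathione affinity chromatography. After scanning and quantification, the Universal PBM Analysis Suite assigned an enrichment E-score to each ungapped 8-mer, averaged over duplicate arrays.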

Sequence | PBM E-score of 8-mer
CATTTAAG | -0.19 ± 0.025
CACCCATG | 0.181 ± 0.0036
CACTACTA | -0.0507 ± 0.03
AAAGGCAA | -0.118 ± 0.042
ATTCGCAA | 0.298 ± 0.027
GGGGTCTA | -0.201 ± 0.13
GTATCCCA | -0.354 ± 0.017
GCATAGCA | 0.0153 ± 0.028
AGGTGCAC | 0.122 ± 0.011
AAGTTTAT | -0.121 ± 0.051
GACCTTGC | -0.145 ± 0.021
ACAGAAAA | -0.0987 ± 0.11
AGATCATA | -0.219 ± 0.03
CCGCAAGA | -0.079 ± 0.13
AAACTCCT | -0.129 ± 0.03
AATATAGA | -0.012 ± 0.043
AGTGCGTG | 0.158 ± 0.015
GCATCGCC | 0.111 ± 0.0028
GACCGAAC | -0.115 ± 0.044
ATGAGACA | -0.058 ± 0.016
GGCAAAGA | -0.132 ± 0.031
GAGTGGCC | -0.0154 ± 0.11

Sequence | PBM E-score of 8-mer
AATGGTTC | -0.0989 ± 0.046
ACACGTCG | 0.391 ± 0.018
AACCGAGT | -0.133 ± 0.06
CAAAGCTG | 0.0554 ± 0.028
AAGGTTAT | 0.00739 ± 0.011
CCTGCGTA | 0.0089 ± 0.029
AACTGTTA | 0.227 ± 0.056
CAATAAGC | -0.0416 ± 0.028
AGTAGTAC | -0.196 ± 0.024
GGCATACC | -0.0479 ± 0.039
ATATGAGC | -0.275 ± 0.02
TAACCCAA | -0.0826 ± 0.031
CGTCGAGC | 0.0651 ± 0.0014
TCATGGCA | 0.0795 ± 0.03
CCCAATTC | -0.225 ± 0.059
AGTAAGGA | -0.156 ± 0.046
GGCAGGGA | -0.112 ± 0.0014
ACGCGACC | -0.0369 ± 0.11
CAATCGCG | 0.269 ± 0.026
GTGACTTA | -0.0258 ± 0.045
ACGCCTGA | 0.206 ± 0.042
CATTTGGC | 0.0793 ± 0.0055

Sequence | PBM E-score of 8-mer
AAGGTAAG | -0.315 ± 0.0057
TATGCGCA | -0.3154 ± 0.001
ATGACTTC | -0.0662 ± 0.037
GACGGCAA | -0.0141 ± 0.033
CGCAAGCC | -0.0832 ± 0.076
ACTTTCCT | 0.191 ± 0.058
AAAAGTAC | -0.113 ± 0.074
GGTTAGTA | -0.188 ± 0.063
ACTAGTTC | 0.0632 ± 0.069
ACCCCTTG | -0.00456 ± 0.057
ATGTTACA | 0.0933 ± 0.047
CCAGATTA | -0.18 ± 0.0084
ATATACAG | -0.0624 ± 0.028
GCGAACGC | 0.338 ± 0.042
CAGCTTGC | 0.199 ± 0.032
CACTGTTC | 0.0889 ± 0.003
TAAGTTCA | -0.108 ± 0.012
CTAGCAGC | 0.0468 ± 0.033
GCATCGTA | -0.122 ± 0.023
AGTTCGGG | -0.0412 ± 0.12
GCAGTCTA | -0.213 ± 0.033
GCAGCTAA | 0.0268 ± 0.036

Sequence | PBM E-score of 8-mer
GAAATTAC | 0.0834 ± 0.14
CGCAGTAA | 0.0339 ± 0.034
ATCTGCAG | -0.0601 ± 0.031
CGCGACCG | 0.233 ± 0.029
GAGAGCGC | -0.0109 ± 0.032
TCGACTCA | -0.145 ± 0.029
CAAGCCGG | -0.327 ± 0.038
ACGCCTAT | 0.319 ± 0.0038
AAGCTTTC | -0.022 ± 0.014
ATTTCCTA | -0.0913 ± 0.096
TCAGCAAA | -0.0833 ± 0.054
ATCCGTCA | -0.0175 ± 0.026
AAGTTTCT | 0.101 ± 0.091
ACGGGCGG | -0.0753 ± 0.057
AGCATCGG | -0.188 ± 0.02
GGTTTCCA | -0.081 ± 0.028
CGTTAGCA | 0.394 ± 0.012
GACGAAAA | 0.0978 ± 0.12
AGCCGGCT | -0.358 ± 0.021
AGGATCTG | -0.273 ± 0.057
